Results: the BET-seq Pho4 binding data (Le et al. 2018)
The list shows a part of the results. Values were computed here from the reads of four pooled replicates and scatter widely.

Each sequence was assayed against T1, Pho4 (S. cerevisiae) (UniProt P07270) (assay: relative binding free energy (BET-seq); higher = weaker binding). Details: reference: library average.
T1 sequence: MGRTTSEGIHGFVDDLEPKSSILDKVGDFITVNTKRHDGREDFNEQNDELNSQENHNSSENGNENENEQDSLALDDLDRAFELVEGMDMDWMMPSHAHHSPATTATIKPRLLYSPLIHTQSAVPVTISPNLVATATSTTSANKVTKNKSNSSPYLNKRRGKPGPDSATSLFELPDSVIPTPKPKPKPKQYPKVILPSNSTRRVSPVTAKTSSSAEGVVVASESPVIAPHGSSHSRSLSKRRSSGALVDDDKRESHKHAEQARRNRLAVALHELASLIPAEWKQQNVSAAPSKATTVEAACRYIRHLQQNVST

Sequence	relative binding free energy [kcal/mol]
CTTGTCACGTGATGGA	0.24
GCTGTCACGTGTGCGG	0.03
TAGGGCACGTGTGGGC	-0.01
GGAAGCACGTGTTGTA	-0.19
AATTTCACGTGTTGTG	0.18
TTATGCACGTGGAACT	0.07
ATGTACACGTGCGGGA	0.04
TTCGGCACGTGATTTA	-0.07
TGGAGCACGTGTGGGA	0
GGAAACACGTGGTAAG	0
AGATGCACGTGTTTTA	-0.18
GTGGGCACGTGATCTA	0.01
ATCGGCACGTGGTACG	-0.19
AGATTCACGTGGAAGT	0.25
GGTTACACGTGATATT	0.32
GCGTGCACGTGGGGTG	-0.15
CGGGGCACGTGATGGT	0.06
TCGCGCACGTGAGTGT	-0.03
GGAGTCACGTGGTATA	0.21
TGGATCACGTGGCTCG	0.12
TAGGGCACGTGGAGAC	-0.02

Sequence	relative binding free energy [kcal/mol]
GGGTTCACGTGTGTCA	0.35
TAGCACACGTGTATGG	0.16
GGGGTCACGTGGCGTG	0.06
TCGATCACGTGGTGGC	0.24
GTGGACACGTGGATTA	0.07
TAGAGCACGTGAGTAA	0.12
AATGTCACGTGAGAAG	0.22
TATGGCACGTGGGCGA	-0.26
ATTGGCACGTGAATCT	0.09
AGTCGCACGTGTGGAT	-0.03
AGTGGCACGTGTCAGT	-0.03
GGGGGCACGTGAAGTT	0.26
GGAGACACGTGTGGGT	0.13
TTTGGCACGTGGCGCT	-0.2
TTGATCACGTGGGGGC	0.07
TTGAACACGTGGTAAG	0.24
GGGTCCACGTGGTCTT	0.04
TTGATCACGTGTTGCT	0.15
TGATTCACGTGAGTGT	0.42
ACGTTCACGTGTTTTA	0.29
TAGCTCACGTGCTTGT	0.23

Sequence	relative binding free energy [kcal/mol]
ATGGACACGTGGCAGT	-0.02
CGTTTCACGTGTTAAG	0.26
AGGTTCACGTGCGAAT	0.26
CTGTTCACGTGGTAGT	0.1
TAGTTCACGTGATATA	0.33
AAAGGCACGTGGGTAC	-0.14
TATTTCACGTGATGTT	0.26
CGGTGCACGTGTAGTA	0.11
TGGGTCACGTGGTTAT	0.18
TGTTCCACGTGGGGGT	-0.02
GTAACCACGTGGAGGG	-0.03
GTTGTCACGTGACGTA	0.23
AGGTGCACGTGGTACT	-0.24
TTTGACACGTGTTCGT	0
CAAGTCACGTGTGTGT	0.17
GGTGGCACGTGCGTGT	-0.14
TATTTCACGTGTTAGA	0.31
TAGTTCACGTGTCATG	0.26
GGCTACACGTGTTGTG	0.11
CCAGTCACGTGATGTT	0.46
GTAGACACGTGGTGGA	0.04
